Reference: the RNAGym collection of RNA variant scans (doi:10.1093/nar/gkz1192)
The source gives no read counts; variants with many changes may rest on few reads.

B1: CPEB3 Ribozyme (parent)
chain: UAACAGGGGGCCACAGCAGAAGCGUUCACGUCGCAGCCCCUGUCAGAUUCUGGUGAAUCUGCGAAUUCUGCUGUAUAUCUC

Variants of: B1
Test: self-cleavage, relative activity (ratio to wild type); higher = more cleavage; in vitro, sequencing
Procedure, shortened: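 After error-prone PCR and barcoding, CPEB3 ribozyme mutant libraries were transcribed with T7 RNA polymerase at 37°C for 5 hours, then given 15 min with DNase I before an EDTA stop, and they cleaved during both steps. Reverse transcription with template switching preceded Illumina sequencing. Relative activity divides a variant's cleaved/total read fraction by the unmutated ribozyme's. At least 5 reads were required per variant, and three batches were averaged.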

Variant | self-cleavage
A15U U43C U51A U60A U66C U72C | 0.1
A15U U41A C68U U80C | 0.22
A15U A21G A57U U69C C81U | 0.09
A15U A35G A64U U67C | 0.35
A15U U31G U67C | 0.33
A15U A28G U66A G73C | 0.18
A15U U43C U48C U66C | 0.12
A15U U43C U54C U60C | 0.19
A15U U48C A75G U76C | 0.25
A15U C40A G46A U60C | 0.15
A15U G30A A75U | 0.26
A15U A35G A75G U78C | 1.47
A15U A21G U26C A47U U72C | 0.05
A15U A35G U78C | 1.27
A15U A21G U26A C29U U43C U60A | 0.03
A15U U31C A35C | 0.36
A15U G16A A18U U54C U76C | 0.25
A15U U31A A45U U76C | 0.12
A15U G46U U60C U80C | 0.09
A15U U25C U43A C62U U67C | 0.19
A15U C27U G30A U43A A45U U80C | 0.05
A15U A57C A65G U78C | 0.08
A15U A35G U48C A57G | 1.27
A15U U41C A56G U69A U72A | 0.28

Variant | self-cleavage
A15U U41C U60A A64U U72C U78C | 0.17
A15U A28U G70A | 0.11
A15U A28G A35U C62A G73C | 0.31
A15U U54A U74A | 0.96
A15U U51A A77G | 0.69
A15U U54A U60A U67C U69A | 0.2
A15U U26C U43G | 0.39
A15U A45U U48C C71U | 0.22
A15U A45U U66C A77U | 0.19
A15U C32G U48A U51A U54A U72A | 0.09
A15U C32U A56U | 0.08
A15U C23U U51C | 0.42
A15U A45U U51A | 0.35
A15U A65G U78C | 0.24
A15U U41C A64U | 0.3
A15U C27U A35G U54A U78C | 0.34
A15U U25C A45U | 0.25
A15U U26C U66A G73A | 0.5
A15U A21G G22U G33C C44A G55C | 0.05
A15U U31G A65G | 0.42
A15U G19A A20G A35G U49C U58A A64U | 0.06
A15U A21U U31A A45G U58C | 0.09
A15U U25A A57U A64U | 0.66
A15U A35U U58C U60A | 0.12

Variant | self-cleavage
A15U C38U U67A | 0.24
A15U A20G A21G | 0.07
A15U U54A U66C A77U C81A | 0.29
A15U A21G A35C U43C U48C C59A A75G | 0.11
A15U A28G U69A | 0.36
A15U U25C U69A U72G | 0.32
A15U U49C U66C U72A | 0.1
A15U C27U U74G | 0.23
A15U A20G C23U C32U U51C G70A U72A | 0.08
A15U A35G C39A U60C U69A G70C | 0.06
A15U U25C G63A | 0.48
A15U A56U A65G U67C | 0.15
A15U U41A U60C U72C | 0.2
A15U A28C A45U A77G | 0.09
A15U U41C U43A A45U | 0.14
A15U U41G U54C U76C | 0.11
A15U G16A A45G | 0.25
A15U C38A G55A | 0.11
A15U U31C C79G | 0.72
A15U A18U U31G A64G A77U U80C | 0.16
A15U C32A U41C U58A A77G | 0.05
A15U A35G U58C | 0.83
A15U C23G A28U U58A U67C | 0.05
A15U G16U A20U C27U U43A | 0.27

Variant | self-cleavage
A15U U25C U31C U48A U80C | 0.3
A15U A47C U72C A75U | 0.25
A15U G19A U26C A45G | 0.07
A15U G24C U49A U69C | 0.11
A15U C38U U49C | 0.2
A15U A35U A45G U67C U72C | 0.16
A15U A21G U25C | 0.1
A15U U43C C50G | 0.25
A15U U60C C62U A75U | 0.12
A15U C29G G36A C37U U41C A64G | 0.18
A15U A20G U51A A64G | 0.15
A15U U31C U41C U43C | 0.23
A15U A28G U48C U66C U72C | 0.16
A15U C23A U31C U41A C71U | 0.07
A15U U25C G33A G46A | 0.19
A15U C37U U58C | 0.12
A15U C17U G24A U25A | 0.11
A15U U26A C27U C39A A45U A47G U58C | 0.03
A15U G19U U26A | 0.18
A15U G30C A35U U76C | 0.17
A15U U25C C62U | 0.27
A15U U51C U66A A75U U78C | 0.13
A15U G42A U69A | 0.05
G16A A18U U31C U60C A77G | 0.31

Variant | self-cleavage
A15U U26A U54A A57G | 0.3
A15U U60C U66C | 0.14
A15U G19U G30A G61C | 0.15
A15U U51C U72C | 0.83
A15U G19A A35G U58G | 0.09
A15U U43C U49C A56G U58C U78G | 0.18
A15U A35G U66C U72C U80C | 1.11
A15U C29G U43C U72A | 0.17
A15U C32U C34U | 0.09
A15U U69C A77U U80C | 0.2
A15U A21G U31A U72A | 0.09
A15U A21G A28U A35U A45C G46A U72A | 0.05
A15U A57U C59A A65G U69A U78C | 0.09
A15U U54A C62U | 0.24
A15U A20G A35U U69C A75C | 0.14
G16A A18G C62U U67A | 0.18
A15U A64U U74C | 0.23
A15U C17U U51C A57G U76C | 0.16
A15U A18U U43C A64G | 0.18
A15U C62A U80C | 0.56
A15U U67A U76C | 0.35
A15U A18U U41C | 0.24
A15U A35G A47U U72A | 0.84
A15U A18U U54C C71A U74A A75U | 0.09

Variant | self-cleavage
A15U U41A C50A | 0.36
A15U U26G A65U | 0.36
A15U A28G G36A U41A A75G | 0.13
A15U A21U U25G A28C G30A C37U | 0.05
A15U A28G A45U | 0.18
A15U A21G C34U A35G U54C | 0.16
A15U A20U A35U U43C U51A U60A | 0.1
A15U C23U A57G | 0.13
G16A A20G A28U U69A A75U | 0.08
A15U U54C U60C A77G | 0.36
A15U C17G U69A | 0.29
A15U A35G U48C | 1.04
A15U U26C G30A U48C A64G U80C | 0.13
A15U C38U U48A U54A | 0.18
A15U A20U A45G U72C A77G | 0.2
A15U A45G U48C U66A | 0.11
A15U U25C U58C G63U | 0.09
A15U C59G U72G U80C | 0.23
A15U U26C U49C U74C | 0.5
A15U U26G A57G U66A U78A | 0.09
A15U U26C G36U U72C | 0.2
A15U C32U G63C | 0.12
A15U U25C U41C | 0.4
A15U U25C U41A | 0.07

Variant | self-cleavage
A15U A20G A65U U67C U72C | 0.15
A15U A20G U25C U54C U74A | 0.08
A15U A47U U58C | 0.2
A15U A20G A35U A45G U72G | 0.08
A15U U25A A56U | 0.15
A15U C29U U48A U66C U72A | 0.09
A15U C23G U43C U51C | 0.07
A15U U31A A35G A77G U78C | 1.17
A15U U58C A65G U74A | 0.12
A15U A20U U25A U54A A64G | 0.22
A15U C32A U54A U67A | 0.06
A15U U31A U49C | 0.22
A15U A20G A35G U60C | 0.44
A15U U54A A56G U69C | 0.16
A15U U41A U51A U60C | 0.12
A15U U26G U54A A65U | 0.06
A15U U48A U66C U67A U69C A75G | 0.07
A15U U31A A56G A65G | 0.15
A15U C23U A35G U41C U49C U72A | 0.1
A15U A35U A64G U69A | 0.15
A15U C17U U72C | 0.43
A15U A64G U78C | 0.57
A15U C17G C34A A64U | 0.11
